Substitutions are numbered along the chain they refer to; changes in the protein carry UniProt numbers. The list shows a part of the results.
T1: RBFOX1 RRM (Homo sapiens, UniProt Q9NWB1 109-208)
T1 sequence: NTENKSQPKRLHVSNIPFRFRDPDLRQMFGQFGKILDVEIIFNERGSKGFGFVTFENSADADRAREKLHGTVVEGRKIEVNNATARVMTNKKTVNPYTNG

B1: GAGAGUG (DNA:RNA)
RNA: GGGAGACCGGAAUUCAGAUUGUCCGAGAGUGUUAAAUCCCGUCGUAGCCACCA
DNA 1: CAATCTGAATTCCGGTCTCCC
DNA 2: TGGTGGCTACGACGGGATT
B2: AUUGUUU (DNA:RNA)
RNA: B1 RNA with G25A, A26U, G27U, A28G, G29U, G31U
DNA 1: CAATCTGAATTCCGGTCTCCC
DNA 2: TGGTGGCTACGACGGGATT
B3: CUGACGG (DNA:RNA)
RNA: B1 RNA with G25C, A26U, G29C, U30G
DNA 1: CAATCTGAATTCCGGTCTCCC
DNA 2: TGGTGGCTACGACGGGATT
B4: UCGGAUA (DNA:RNA)
RNA: B1 RNA with G25U, A26C, A28G, G29A, G31A
DNA 1: CAATCTGAATTCCGGTCTCCC
DNA 2: TGGTGGCTACGACGGGATT
B5: AUACAGU (DNA:RNA)
RNA: GGGAGACCGGAAUUCAGAUUGUCCAUACAGUUUAAAUCCCGUCGUAGCCACCA
DNA 1: CAATCTGAATTCCGGTCTCCC
DNA 2: TGGTGGCTACGACGGGATT
B6: CUCUUGG (DNA:RNA)
RNA: B5 RNA with A25C, A27C, C28U, A29U, U31G
DNA 1: CAATCTGAATTCCGGTCTCCC
DNA 2: TGGTGGCTACGACGGGATT
B7: GCCUUAG (DNA:RNA)
RNA: B1 RNA with A26C, G27C, A28U, G29U, U30A
DNA 1: CAATCTGAATTCCGGTCTCCC
DNA 2: TGGTGGCTACGACGGGATT
B8: CGCUGAU (DNA:RNA)
RNA: B5 RNA with A25C, U26G, A27C, C28U, A29G, G30A
DNA 1: CAATCTGAATTCCGGTCTCCC
DNA 2: TGGTGGCTACGACGGGATT
B9: UACGAGG (DNA:RNA)
RNA: B5 RNA with A25U, U26A, A27C, C28G, U31G
DNA 1: CAATCTGAATTCCGGTCTCCC
DNA 2: TGGTGGCTACGACGGGATT
B10: CACUUUA (DNA:RNA)
RNA: B1 RNA with G25C, G27C, A28U, G29U, G31A
DNA 1: CAATCTGAATTCCGGTCTCCC
DNA 2: TGGTGGCTACGACGGGATT
B11: GUGGAGC (DNA:RNA)
RNA: B5 RNA with A25G, A27G, C28G, U31C
DNA 1: CAATCTGAATTCCGGTCTCCC
DNA 2: TGGTGGCTACGACGGGATT
B12: GUAGGGC (DNA:RNA)
RNA: B5 RNA with A25G, C28G, A29G, U31C
DNA 1: CAATCTGAATTCCGGTCTCCC
DNA 2: TGGTGGCTACGACGGGATT
B13: GAAGACG (DNA:RNA)
RNA: B1 RNA with G27A, A28G, G29A, U30C
DNA 1: CAATCTGAATTCCGGTCTCCC
DNA 2: TGGTGGCTACGACGGGATT
B14: CUUCCGC (DNA:RNA)
RNA: B5 RNA with A25C, A27U, A29C, U31C
DNA 1: CAATCTGAATTCCGGTCTCCC
DNA 2: TGGTGGCTACGACGGGATT
B15: AAAACAC (DNA:RNA)
RNA: B5 RNA with U26A, C28A, A29C, G30A, U31C
DNA 1: CAATCTGAATTCCGGTCTCCC
DNA 2: TGGTGGCTACGACGGGATT
B16: CCCUAGC (DNA:RNA)
RNA: B5 RNA with A25C, U26C, A27C, C28U, U31C
DNA 1: CAATCTGAATTCCGGTCTCCC
DNA 2: TGGTGGCTACGACGGGATT
B17: ACGUUCA (DNA:RNA)
RNA: B5 RNA with U26C, A27G, C28U, A29U, G30C, U31A
DNA 1: CAATCTGAATTCCGGTCTCCC
DNA 2: TGGTGGCTACGACGGGATT
B18: CUCGUAG (DNA:RNA)
RNA: B5 RNA with A25C, A27C, C28G, A29U, G30A, U31G
DNA 1: CAATCTGAATTCCGGTCTCCC
DNA 2: TGGTGGCTACGACGGGATT
B19: AGCCGUG (DNA:RNA)
RNA: B1 RNA with G25A, A26G, G27C, A28C
DNA 1: CAATCTGAATTCCGGTCTCCC
DNA 2: TGGTGGCTACGACGGGATT
B20: ACAUGAU (DNA:RNA)
RNA: B5 RNA with U26C, C28U, A29G, G30A
DNA 1: CAATCTGAATTCCGGTCTCCC
DNA 2: TGGTGGCTACGACGGGATT

Each binder was assayed against T1, RBFOX1 RRM (assay: EMSA; HiTS-Eq, 1 nM pool, 10 min; buffer printed only for the single-RNA assays: 10 mM Tris pH 7.5, 150 mM NaCl, 3.4 mM EDTA, 0.001% NP-40, 30 C). Conditions: tags: His6 N-terminal (pET28a); label: 5' 32P.
Summary of the method: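 These values rest on relative association constants, computed from read-count changes of each RNA species versus the control reaction and normalised to the cognate motif. Reads came from free RNA recovered by 8% native PAGE after purified RbFox RRM (wild type or mutant) at increasing concentrations was equilibrated for 10 min in 50 µL with 1 nM of a 5′-radiolabelled pool with 7 randomized nucleotides and DNA-annealed flanks.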
In the case of B1, the binding signal is reported as 0.0169 KA relative to UGCAUGU.
With B2 the binding signal was 0.0146 KA relative to UGCAUGU.
For B3, the binding signal was 0.0159 KA relative to UGCAUGU.
In the case of B4, the binding signal is reported as 0.00712 KA relative to UGCAUGU.
B5 was tested, and the binding signal was 0.000579 KA relative to UGCAUGU.
B6 was tested, and the binding signal was 0.0149 KA relative to UGCAUGU.
In the case of B7, the binding signal is reported as 0.0102 KA relative to UGCAUGU.
B8 was tested, and the binding signal was 0.0138 KA relative to UGCAUGU.
B9 was tested, and the binding signal was 0.00815 KA relative to UGCAUGU.
For B10, the binding signal was 0.00355 KA relative to UGCAUGU.
With B11 the binding signal was 0.0151 KA relative to UGCAUGU.
For B12, the binding signal was 0.00466 KA relative to UGCAUGU.
B13 was tested, and the binding signal was 0.0102 KA relative to UGCAUGU.
B14 was tested, and the binding signal was 0.0039 KA relative to UGCAUGU.
For B15, the binding signal was 0.00144 KA relative to UGCAUGU.
In the case of B16, the binding signal is reported as 0.00345 KA relative to UGCAUGU.
For B17, the binding signal was 0.00409 KA relative to UGCAUGU.
B18 was tested, and the binding signal was 0.0141 KA relative to UGCAUGU.
With B19 the binding signal was 0.0114 KA relative to UGCAUGU.
In the case of B20, the binding signal is reported as 0.00584 KA relative to UGCAUGU.
